From ChEMBL document CHEMBL4888484, “Replenishing the malaria drug discovery pipeline: Screening and hit evaluation of the MMV Hit Generation Library 1 (HGL1) against asexual blood stage Plasmodium falciparum ,using a nano luciferase reporter read-out” (2022) come the findings set out here.

Among all 150,000 compounds or so, about 540 (0.36%) showed an effect of 50% or more. The list shows a part of the results.

The assay relates to Plasmodium falciparum. Nature of the assay: Primary screen in NF54 nanoGlo assay, in single point, at 2uM, 72h; a lower Z score goes with more inhibition. It is filed as functional, Erythrocyte. The note with it: timepoint 72 hour.
Turning to `CCc1ccc(-c2cc(C(=O)NCc3nnn[nH]3)[nH]n2)cc1`, the “% Inhibition” value is reported as -19% and the Z score was found to be 1.67.

`CN(C)C(=O)Cn1cnc(NS(=O)(=O)c2ccc3c(c2)CCCC3)n1`: the “% Inhibition” value is given as -9% and the Z score came to 1.36.

For the compound `CC1(C)CC[C@H](NC(=O)CCN2C(=O)CCC2=O)c2ccccc21`, the “% Inhibition” value is -8% and the Z score is on record as 0.69.

For `C[C@H]1CCN(c2cc(C(=O)N3CC(=O)Nc4ccccc43)ccn2)C1`, the “% Inhibition” value is listed as -5% and the Z score amounted to 0.91.

Take `O=C(NC1CCN(CC2=CCCCC2)CC1)c1ncccc1F`: the “% Inhibition” value is given as 1% and the Z score is listed as -0.1.

With `Cc1ccc2c(c1C)OC[C@@H]2NC(=O)CCc1ccccc1C(=O)O`, the “% Inhibition” value is reported as -18% and the Z score stood at 1.82.

As to `Cc1cc(Br)cnc1NC(=O)C1C[C@@H]2CC(=O)[C@H]1C2` (stereo partly specified), the “% Inhibition” value is -5% and the Z score is 0.58.

For the compound `O=C1COc2ccc(S(=O)(=O)N3CCC[C@H](C(=O)N4CCc5ccccc5C4)C3)cc2N1`, the “% Inhibition” value was 3% and the Z score was -0.49.

Turning to `Cc1nc(CN2CCC[C@H]2C(=O)O)sc1C`, the “% Inhibition” value came out at 7% and the Z score was -0.96.

Turning to `CCc1cc(N2CCC(N(C)Cc3noc(C)n3)CC2)nc(N(C)C)n1`, the “% Inhibition” value is reported as 1% and the Z score is -0.06.

With `CC(=O)N(Cc1nn(C)c2c1CN(S(=O)(=O)c1cc(C)ccc1C)CC2)c1ccccc1`, the “% Inhibition” value is -3% and the Z score is 0.51.

On to `Cc1ccc(OCCCC(=O)N2CCC[C@@H]2CN)cc1C`, for which the “% Inhibition” value is -21% and the Z score came out at 2.46.

With `CC(C)CS(=O)(=O)C1CN(C(=O)Cn2nnc3ccccc32)C1`, the “% Inhibition” value is recorded as -15% and the Z score amounted to 1.94.

On to `CCn1nccc1C(=O)N1CCC2(CC1)N(Cc1cccc(F)c1)C(=O)C[S@+]2[O-]`, for which the “% Inhibition” value is listed as 4% and the Z score is listed as -0.79.

For `Cc1ccc(C(=O)c2oc3ccccc3c2NC(=O)c2c(C)noc2-c2ccc(Cl)cc2)cc1F`, the “% Inhibition” value is listed as -3% and the Z score was determined as 0.42.

Consider `CCc1nc(CNC(=O)c2ccc(C(F)F)c(F)c2)co1`, for which the “% Inhibition” value is recorded as 9% and the Z score is reported as -1.6.

Turning to `CC(C)C[C@H](NC(=O)Cn1ncn(C)c1=O)C(C)(C)C`, the “% Inhibition” value is reported as 2% and the Z score is reported as -0.2.

With `CN1CCN([C@H]2CN(C(=O)c3ccc(-c4ccccc4)cc3)C[C@@H]2O)CC1`, the “% Inhibition” value is 15% and the Z score is -1.99.

Take `COCC1(C(=O)NCC2(N3CCOCC3)CCCCCC2)CCC1`: the “% Inhibition” value was determined as 1% and the Z score was -0.23.

For the compound `CC(=O)c1cc(CN2CCO[C@H](C(=O)N(C)C)C2)n(C)c1`, the “% Inhibition” value is listed as -2% and the Z score came to 0.47.

For the compound `C[C@H](Nc1cccnc1C#N)C1CCN(CC(F)(F)F)CC1`, the “% Inhibition” value was -7% and the Z score turned out to be 1.46.

In the case of `CC(=O)N1CCC(N2CCN3C(=O)N(Cc4ccc(F)cc4)C[C@H]3C2)CC1`, the “% Inhibition” value amounted to 11% and the Z score is reported as -1.47.

For `CCN(C)C(=O)c1cccc(C(=O)N[C@H]2CCN(c3ccccc3OC)C2=O)c1`, the “% Inhibition” value worked out at 1% and the Z score is reported as -0.12.
